Assay results: a collection of fitness landscapes (doi:10.1016/j.celrep.2020.107928)
The full ranking holds about 81,000 sequences; the median of “one-hybrid fitness for binding parS DNA” is about -0.17, and the highest 2% start at about 0.51. The list shows a part of the results.

B1: Caulobacter ParB omega fusion; a variant is named by its letters at X, in order, B8GW30 (parent)
chain: MESVVVGEPGMSEGRRGLGRGLSALLGEVDAAPAQAPGEQLGGSREAPIEILQRNPDQPRRTFREEDLEDLSNSIREKGVLQPILVRPSPDTAGEYQIVAGERAWRAAQRAGLKTVPIMVRELDDLAVLEIGIIENVQRADLNVLEEALSYKVLMEKFERTQENIAQTIGKSXSHVANXMRLLXLPDEVQSYLVSGELTAXHARAIAAAADPVALAKQIIEGGLSVRETEALARKAPNLSAGKSKGGRPPRVKDTDTQALESDLSSVLGLDVSIDHRGSTGTLTITYATLEQLDDLCNRLTRGI

Variants of: B1
Assay: one-hybrid fitness for binding parS DNA (scaled: cognate 1, non-cognate 0); higher = stronger binding
Settings: with parS DNA site
How it was run: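 Pre- and post-selection plasmids were Illumina-sequenced, three replicate libraries were pooled, and any variant with under 10 reads was removed. The libraries were Caulobacter ParB with four specificity codons randomised, selected in E. coli USO through a HIS3 reporter whose site is 19 bp from the promoter. Cells grew 48 hours at 37°C on M9 without histidine, with 0.1 mM IPTG and 5 mM 3-AT. Fitness is the log change in variant-to-wild-type read ratio, rescaled against cognate and non-cognate.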

Variant	one-hybrid fitness for binding parS DNA
TVNG	≤ 0.2
MRTY	≤ 0.2
VAHS	≤ 0.2
RNRP	≤ 0.2
WMNT	≤ 0.2
YTWS	≤ 0.2
WSNY	≤ 0.2
HWTK	≤ 0.2
RIWN	0.455
FNTD	≤ 0.2
MISR	≤ 0.2
DRCD	≤ 0.2
SITA	≤ 0.2
RVFW	≤ 0.2
AKQY	≤ 0.2
HEGL	≤ 0.2
GQSN	≤ 0.2
GWPF	≤ 0.2
KHSY	≤ 0.2
RLTH	0.232
AFKR	0.237
SRMK	≤ 0.2
DILC	≤ 0.2
SISY	≤ 0.2
NTMI	≤ 0.2
RICD	≤ 0.2

Variant	one-hybrid fitness for binding parS DNA
YSEG	≤ 0.2
DSYS	≤ 0.2
QQGR	≤ 0.2
SDMD	≤ 0.2
HQSW	≤ 0.2
RSWH	≤ 0.2
LFIY	≤ 0.2
VHLN	≤ 0.2
MPRA	≤ 0.2
VSTA	≤ 0.2
TGRA	≤ 0.2
CRTQ	≤ 0.2
IITS	≤ 0.2
MTPR	≤ 0.2
QLVP	≤ 0.2
KGLS	≤ 0.2
TNFS	≤ 0.2
AHAT	≤ 0.2
YGTS	≤ 0.2
ARHY	≤ 0.2
NMAG	≤ 0.2
DMHS	≤ 0.2
TGQV	≤ 0.2
VAHC	≤ 0.2
QIHY	≤ 0.2
YELI	≤ 0.2

Variant	one-hybrid fitness for binding parS DNA
SVED	≤ 0.2
REYV	≤ 0.2
KVTF	≤ 0.2
RMKH	0.24
QVVI	≤ 0.2
FRKL	≤ 0.2
KYAD	≤ 0.2
MNRC	≤ 0.2
PLNW	≤ 0.2
DFHS	≤ 0.2
HKGR	≤ 0.2
KHHS	≤ 0.2
SAEG	≤ 0.2
PDCL	≤ 0.2
ACSS	≤ 0.2
PQAV	≤ 0.2
HMFC	≤ 0.2
WTYT	≤ 0.2
QNSA	≤ 0.2
NRIC	≤ 0.2
MTRT	≤ 0.2
YMDS	≤ 0.2
LKQM	≤ 0.2
EGDT	≤ 0.2
KSLW	≤ 0.2
YILG	≤ 0.2

Variant	one-hybrid fitness for binding parS DNA
KMKL	≤ 0.2
AWTR	≤ 0.2
QVCS	≤ 0.2
KTMA	≤ 0.2
GWIT	≤ 0.2
HHTG	≤ 0.2
TVGC	≤ 0.2
QYCR	≤ 0.2
SKHT	≤ 0.2
PRDG	≤ 0.2
SDYH	0.273
KATH	≤ 0.2
FYQV	≤ 0.2
YNGG	≤ 0.2
GKWW	≤ 0.2
DREA	≤ 0.2
NVQV	≤ 0.2
TFKK	0.337
DFQV	≤ 0.2
RFIF	≤ 0.2
SGTD	≤ 0.2
WASS	≤ 0.2
GRNL	≤ 0.2
TRES	≤ 0.2
SAMG	≤ 0.2
IFLT	≤ 0.2

Variant	one-hybrid fitness for binding parS DNA
HTWL	≤ 0.2
TKCA	≤ 0.2
LEPF	≤ 0.2
RCNA	0.719
SKLK	≤ 0.2
CAYS	≤ 0.2
RTPF	≤ 0.2
QWVD	≤ 0.2
PGCL	≤ 0.2
VSQT	≤ 0.2
SIAN	≤ 0.2
CHTM	≤ 0.2
APVA	≤ 0.2
RWYL	≤ 0.2
TCGF	≤ 0.2
LHPW	≤ 0.2
CSMS	≤ 0.2
AVAD	≤ 0.2
YHYC	≤ 0.2
HIPQ	≤ 0.2
WTMC	≤ 0.2
VFAT	≤ 0.2
TTRS	≤ 0.2
ETDI	≤ 0.2
HVIP	≤ 0.2
NGKF	≤ 0.2

Variant	one-hybrid fitness for binding parS DNA
TCDT	≤ 0.2
TSLD	≤ 0.2
QKYI	≤ 0.2
VDYF	0.241
HIMR	≤ 0.2
YKQR	≤ 0.2
WKIG	≤ 0.2
TKEM	≤ 0.2
RVQA	0.597
TGSR	≤ 0.2
ADKT	≤ 0.2
AISG	≤ 0.2
MNNS	≤ 0.2
HTRH	≤ 0.2
YVHS	≤ 0.2
RQGM	0.287
NHRL	≤ 0.2
NATC	≤ 0.2
RLTS	0.984
PEAV	≤ 0.2
MPVR	≤ 0.2
TQNR	≤ 0.2
NPKL	≤ 0.2
